Reference: PubChem BioAssay AID624173 (National Center for Advancing Translational Sciences (NCATS), 2012)
Hit rate of the full screen: of about 410,000 compounds, about 490 (0.12%) were called active. Inconclusive means that the source gave no clear call. Such entries were picked first, then a sample of the others. Calls come from the whole dose curve; as a rule, active = well fitted inhibition curve with a large enough effect; inconclusive = small, poorly fitted or top-dose-only effect; inactive = flat fitted curve, though single readings scatter. Potencies beside an inconclusive call are fits to weak or partial responses and may not hold up.

These compounds were tested against pyruvate kinase (Trypanosoma brucei) (UniProt Q57TT1) (assay: qHTS of Trypanosoma Brucei Inhibitors). Conditions: TbPYK enzyme, Kinase-Glo Plus ATP luminescence, 45 min; series mostly up to 76.8 µM.
Summary of the method: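 Luminescence from Kinase-Glo Plus, added after a 45-minute room-temperature reaction, served as the end-point read-out. The enzyme and substrate were preincubated with compound before ADP (130 uM final) initiated turnover. Concentration-effect curves came from normalized qHTS data.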
Note: nearly all actives have a fitted effect of over 50% in size.
Potency is the fitted concentration of half-maximal effect; tags give direction and shape of the fitted curve.

Row | Structure (SMILES) | Potency
1 | COc1ccc([N+](=O)[O-])cc1-c1[nH]c(-c2ccc(C(=O)O)cc2)nc1-c1ccccc1 | inactive
2 | COc1cc(SSc2cc(OC)cc([N+](=O)[O-])c2N)c(N)c([N+](=O)[O-])c1 | active: 2.82 µM
3 | Cc1ccc(Nc2cc(C)c(O)c(C)c2)cc1 | inconclusive: 31.6 µM [inhibitor, partial curve, poor fit]
4 | CCn1c(CSCc2ccc(C)cc2)n[nH]c1=S | inconclusive: 5.62 µM [inhibitor, partial curve, poor fit]
5 | COCc1cc(C)nc(SCC(=O)c2ccc(O)c(O)c2)c1C#N | inconclusive: 39.8 µM [inhibitor, single point]
6 | CCOC(=O)c1ccc(NC(=O)Cn2c(-c3nonc3N)nc3ccccc32)cc1 | inconclusive: 31.6 µM [inhibitor, partial curve, poor fit]
7 | S=c1[nH]ccn1-c1c(Cl)cccc1Cl | inconclusive: 14.1 µM [inhibitor, partial curve, poor fit]
8 | Cc1ccc(CSCc2ccc(C(=O)NC3CC3)o2)cc1 | inactive
9 | Cc1nc(SCC(=O)N2CCN(C(=O)c3cccs3)CC2)c2c(C)c(C)sc2n1 | inconclusive: 50.1 µM [inhibitor, single point]
10 | O=C(/C=C/c1ccc(Cl)cc1)NC1CC2CCC1C2 (stereo not given) | inactive
11 | CN(C)c1ccc(/C=C/c2ccc3ccccc3n2)cc1 | inconclusive: 39.8 µM [inhibitor, single point]
12 | S=c1[nH]nc(-c2cccc(Cl)c2)n1/N=C/c1ccco1 | inconclusive: 3.55 µM [inhibitor, full curve]
13 | CC(C)NC(=O)c1cc(-c2ccc(Br)cc2)on1 | inconclusive: 50.1 µM [inhibitor, single point]
14 | CCOC(=O)C(CC)Sc1nc2c(c(=O)[nH]c(=O)n2C)n1C/C=C(/C)Cl (stereo not given) | inconclusive: 25.1 µM [inhibitor, partial curve]
15 | CC(=O)Nc1ccc(SCCN2CC[C@@H](C(C)(C)C)CCC2=O)cc1 | inactive
16 | Cc1occc1C(=O)N/N=C/c1ccc(N(C)C)cc1 | inconclusive: 17.8 µM [inhibitor, partial curve, poor fit]
17 | O=C(Nc1ccc(F)cc1)c1nsc(Cl)c1Cl | inactive
18 | Cn1c(=O)c2[nH]c(=S)n(Cc3ccccc3)c2n(C)c1=O | active: 15.8 µM
19 | CC1CCC(C(O)(C(=O)c2ccccc2)c2ccccc2)C(=O)C1 (stereo not given) | inconclusive: 50.1 µM [inhibitor, single point]
20 | Cc1cc(Cl)c2oc(C(=O)N(C)C3CCOC3)c(C)c2c1 (stereo not given) | inconclusive: 31.6 µM [inhibitor, single point]
